B1: MS2 coat protein; the commonest letter at each place (parent)
chain: MASNFTQFVLVDNGGTGDVTVAPSNFANGVAEWISSNSRSQAYKVTCSVRQSSAQNRKYTIKVEVPKVATQTVGGVELPVAAWRSYLNMELTIPIFATNSDCELIVKAMQGLLKDGNPIPSAIAANSGIY

Variants of: B1
Assay: apparent fitness score (VLP assembly selection enrichment vs plasmid library) (log10 ratio); higher = better expression / assembly into well-formed VLPs
Description: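 SyMAPS: NNK codon saturation mutagenesis of every codon of the MS2 bacteriophage coat protein (EMPIRIC cloning), expressed overnight in E. coli DH10B at 37 °C. Assembled VLPs were selected by ammonium sulfate precipitation plus FPLC size-exclusion chromatography, and the encapsidated RNA was sequenced. Apparent fitness score = log10 of the mean over 3 biological replicates of (percent abundance in the VLP library / percent abundance in the plasmid library). Variants absent after selection were set to 0.0001, i.e. -4.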
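Further: counts from Illumina MiSeq reads, cDNA of packaged RNA versus plasmid DNA taken before selection, each replicate independent from library construction onward, expression induced with 0.1% arabinose.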

Variant	apparent fitness score (log10)
V9K	0.0973
V9R	-0.0245
V9Q	-0.00238
V9W	-0.787
G75C	0.167
G75P	-0.439
G75T	-0.93
G75L	-0.855
P23K	< -4
P23V	-0.752
P23D	-0.522
S121Q	0.758
P120I	< -4
P120V	-0.678
S40L	< -4
S40M	< -4
S53D	< -4
S53T	0.34
S53V	< -4
S53L	< -4
F8K	-0.836
V49R	< -4
V49M	-0.244
N25H	< -4

Variant	apparent fitness score (log10)
N25W	-1.14
N117R	-0.997
N117F	-1.49
N117V	-0.58
A81D	< -4
A81K	< -4
Y86P	-1.09
Y86C	-0.812
Y86H	1.06
N126K	< -4
N126V	< -4
N126P	< -4
D101M	< -4
D101Y	< -4
D101Q	-0.573
A54T	-0.479
S52T	-0.35
S52F	-0.185
S52R	-1.45
S52Y	-0.382
S52V	0.476
S52D	< -4
G128H	< -4
G128E	< -4

Variant	apparent fitness score (log10)
G128A	0.753
I119C	< -4
I119G	-0.984
I119D	-0.942
I105P	-0.392
I105V	0.0038
I123S	< -4
Q7Y	< -4
Q7L	-0.309
Q7T	0.835
Q7E	-0.577
I61N	< -4
I61L	-0.846
I61D	< -4
L78G	-0.65
L78F	0.214
S3C	< -4
S3Y	0.866
S3V	-0.188
F5T	-0.9
M89I	0.633
M89H	-0.515
K67W	-0.762
Y43L	< -4

Variant	apparent fitness score (log10)
Y43W	< -4
W33G	-0.343
A124R	-1.09
S38C	0.234
S38T	0.233
S38L	-0.161
S38Q	-1.28
S38M	-1.02
P118M	< -4
P118F	-1.29
E90C	0.8
S35T	< -4
S35G	-1.25
S35E	< -4
A97H	< -4
A97E	-0.383
A97M	< -4
A97G	-1.29
A97D	-0.13
C47E	< -4
C47D	< -4
C47F	0.37
S24F	-0.927
S24Q	< -4

Variant	apparent fitness score (log10)
S24N	-0.567
G116N	< -4
G116C	-1.33
A27S	0.431
A27I	< -4
A27T	0.593
G14L	-1.14
G14H	0.129
G14K	0.375
G14T	-0.309
N56G	-1.69
N56Q	-0.382
N56R	-0.721
N56D	0.0111
N56S	-0.603
N56C	-0.624
N88W	0.643
N88P	-0.721
V30K	-1.67
V30A	< -4
V30D	< -4
V30P	-0.885
A31Y	< -4
A31W	0.22

Variant	apparent fitness score (log10)
A31C	< -4
L91W	-0.138
L91Y	-0.614
L91G	-0.314
L91D	-1.93
M109H	< -4
M109V	-0.494
K62Q	-0.37
K44Q	-1.07
K44Y	0.429
K44W	< -4
L87R	-1.24
L87K	-1.43
R39H	0.651
D18E	-1.01
D18Q	-0.515
T98K	-1.6
T98W	< -4
T98G	-0.656
T98L	-1.6
L10P	-0.359
L10V	< -4
L10C	< -4
L10T	< -4

Variant	apparent fitness score (log10)
L10G	-1.18
V68T	0.4
V68N	0.487
S48F	0.271
S48Y	< -4
S48C	0.671
S48P	< -4
Q71I	-1.25
Q71R	0.394
A108L	< -4
A108T	-0.491
T20I	0.859
G15S	-1.88
G15A	-1.31
G15M	< -4
G15L	-1.42
G15F	-0.965
A42M	< -4
A42I	< -4
A42H	< -4
A42R	-1.14
Y59K	< -4
Y59G	-1.18
Y59A	< -4

Variant	apparent fitness score (log10)
Y59I	-0.617
Y59P	-1.31
K107G	< -4
R50M	-0.67
R50H	0.406
R50G	0.341
L104C	0.354
L104M	0.572
L104D	-0.243
I93T	-0.096
I93V	0.457
G17D	-0.0673
G17Q	0.0581
G17T	-0.398
S100V	0.241
S100E	0.896
S100R	0.358
S100K	0.709
G111L	< -4
G111N	< -4
G111H	< -4
G111Q	< -4
G111D	-0.203
G111T	< -4

Variant	apparent fitness score (log10)
G111E	< -4
G111P	< -4
G111V	-1.5
K114C	-0.59
K114F	< -4
V106G	-1.47
V106H	< -4
V106R	< -4
G74E	0.658
G74H	0.281
G74L	0.34
D115E	0.841
V63Y	-1.96
V63G	0.0524
K58A	-0.305
K58G	-1.38
K58N	-0.319
P66G	-1.62
P66H	-1.46
P66Y	< -4
P66N	< -4
P66S	-0.54
P66Q	-0.831
I129V	-1.44

Variant	apparent fitness score (log10)
I129F	0.644
T16P	0.425
T16A	0.149
T16V	-0.0753
T16L	0.409
N13G	0.113
N13V	-0.38
N13H	0.0363
N13K	0.03
E32W	-0.579
E32R	< -4
G29I	< -4
G29K	< -4
G29T	< -4
N37H	-0.0671
N37F	-1.05
T46W	-1.06
T46D	< -4
T46Y	< -4
T46A	< -4
P94T	-1.52
P94C	-1.5
P94G	-1.31
F26T	-0.963

Variant	apparent fitness score (log10)
F26Q	0.464
F26G	-0.786
F26S	0.852
F26C	0.39
F26V	-0.556
F26D	< -4
S85Q	< -4
S85E	-1.07
S85W	-0.999
N99I	0.716
N99P	0.466
N99H	-0.138
N99T	-0.0898
A22L	-0.739
A22W	< -4
N28I	< -4
N28P	< -4
A2E	-0.812
V65Y	-0.429
V65D	-1.17
V65R	-0.634
V65T	-1.7
V65W	< -4
V21Q	-1.72

Variant	apparent fitness score (log10)
V21K	-1.28
V45M	-0.721
W83K	-1.82
W83Q	< -4
W83F	-0.713
W83Y	< -4
Q41L	0.0877
Q41H	-0.223
Q41A	0.907
Q41P	-0.885
Q51S	0.758
T92C	-1.41
I34R	-1.21
I34G	-0.891
T70E	-0.0121
T70F	-0.652
T70Q	0.77
T70K	0.249
P79W	< -4
P79F	< -4
P79N	-0.388
D12A	-0.544
I95M	-0.522
I95H	0.379

Variant	apparent fitness score (log10)
I95V	0.32
E103F	0.399
Q55P	-1.19
Q55S	-0.213
Q55T	0.283
E64N	0.166
V11F	< -4
V11N	< -4
V11T	-0.765
F96P	< -4
F96V	-0.862
V19H	-0.707
V19D	< -4
V76W	-0.862
N4W	-1.15
N4I	0.664
N4Q	-0.81
N4S	-1.18
S127N	< -4
S127C	-1.31
S127H	0.943
S127I	< -4
C102F	-1.13
T6K	< -4

Variant	apparent fitness score (log10)
T6Y	-0.738
T6H	0.39
T6E	-1.28
E77V	0.312
E77T	0.279
E77W	-0.0444
L113W	0.767
L113P	-1.1
L113S	< -4
T72M	0.281
T72L	0.338
A69G	0.537
A69Y	-1.59
A69M	< -4
S36E	-0.0725
T60K	0.78
T60V	0.587
L112Y	-1.51
A82S	-1.11
A82N	< -4
A82Y	< -4
A82G	-1.45

Source: the supplement of paper PMC5895741
